Laboratory results published in the supplement of paper PMC7125110.
± gives the standard error. Variants at the background level are over-represented here.

B1: glmS ribozyme (parent)
chain: AUAAAAGCGCCAGAACUACAGAAAUGUAGUUGACGAGGAGGAGGUUUAUCGAAUUUUCGGCGGAUGCCUCCAAA

Variants of: B1
Assay: self-cleavage kobs at 10000 uM GlcN6P; higher = faster cleavage; RNA array
Details: with glucosamine-6-phosphate
Procedure, shortened: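 Sequenced MiSeq chips were the platform: E. coli RNA polymerase transcribed barcoded ribozyme variants on them in situ, and a hybridised Cy3 probe tracked these at 37 °C. After glucosamine-6-phosphate (40 μM to 10 mM) in HEPES/KCl/Mg(OAc)2 buffer was flowed in, tiles were imaged over ~14 h. Signals normalised to baseline and to non-cleaving reference variants were reduced to per-tile medians and fit to one- or two-exponential decays to obtain kobs. kcat and KM were derived through weighted Michaelis–Menten fits across concentrations.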

| Variant | self-cleavage kobs at 10000 uM GlcN6P [s⁻¹] |
| --- | --- |
| U54A G62C C70G | < 1e-05 |
| U46A A48G | 3.66e-05 ± 1.3e-05 |
| U55C G59C C70G | < 1e-05 |
| G60U G66C | < 1e-05 |
| U47A A53U C58A | 0.000151 ± 3e-05 |
| G59U C61A C67A | < 1e-05 |
| A52C C68U C70U | 3.87e-05 ± 1.7e-05 |
| C61A C68A | < 1e-05 |
| U49A U55A | 2.26e-05 ± 9.3e-06 |
| C61U G63U C67U | < 1e-05 |
| U49G C61A | < 1e-05 |
| G59U C61U A64G | < 1e-05 |
| U46A C50A G59U | < 1e-05 |
| U49C U56G | < 1e-05 |
| C50U A53C U54G | < 1e-05 |
